From PubChem BioAssay AID624417 (National Center for Advancing Translational Sciences (NCATS), 2012)
Out of some 410,000 compounds screened, about 6,400 (1.6%) were called active. Inconclusive results, whose numbers are uncertain, are shown with a selection of clear calls. The call rests on the fitted dose curve; in most records, active means well fitted inhibition curve with a large enough effect; inconclusive means small, poorly fitted or top-dose-only effect; inactive means no such curve, though single readings can be large or run the other way. Potencies of inconclusive entries are left out as doubtful fits.

target: Glucagon-like peptide 1 receptor (Homo sapiens) (UniProt P43220); assay: qHTS of GLP-1 Receptor Inverse Agonists (Inhibition Mode); conditions: HEK293 GLP-1R CRE-luciferase, luminescence, 24 h, GLP-1R form is constitutively active; activity change, negative = inhibition: at 38.3 µM (top of the series) unless noted; further: nearly all actives have a fitted effect of over 55% in size
Summary of the method: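 HEK293 cells stably co-expressing a cAMP-responsive luciferase reporter and constitutively active GLP-1R were seeded, incubated 12 h, then exposed to compounds for 24 h at 37 C. Luminescence was read 12 min after detection reagent; inverse agonists lower signal.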
On the % scale 0 is the no-effect control and ±100 the full control effect; potency means the concentration at half of the fitted maximal effect; tags describe the fitted curve by direction and shape.

Sequence of UniProt P43220 (P43220 whole entry, looked up): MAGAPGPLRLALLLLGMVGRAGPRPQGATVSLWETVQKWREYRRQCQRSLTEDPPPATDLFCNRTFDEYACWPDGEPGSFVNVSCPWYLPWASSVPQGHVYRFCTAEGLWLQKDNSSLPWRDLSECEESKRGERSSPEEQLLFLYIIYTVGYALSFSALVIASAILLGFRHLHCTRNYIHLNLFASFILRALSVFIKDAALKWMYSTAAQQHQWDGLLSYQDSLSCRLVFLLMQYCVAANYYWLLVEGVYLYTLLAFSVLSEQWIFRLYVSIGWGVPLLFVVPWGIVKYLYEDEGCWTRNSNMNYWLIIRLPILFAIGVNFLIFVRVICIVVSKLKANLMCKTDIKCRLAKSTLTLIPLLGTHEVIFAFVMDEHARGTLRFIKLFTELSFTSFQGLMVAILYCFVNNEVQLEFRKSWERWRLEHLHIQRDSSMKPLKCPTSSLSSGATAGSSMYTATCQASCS

SMILES	Potency	activity change, negative = inhibition
COC(=O)c1ccc(NCc2cc(O)ccc2O)cc1	inconclusive [inhibitor, single point]	
CCOc1ccc2[nH]c3ncccc3c(=O)c2c1	inactive	
Cc1nc2ccc(NC(=O)c3cc([N+](=O)[O-])cc([N+](=O)[O-])c3Cl)cc2s1	inactive	
O=C1C2C(c3ccccc3)CC=CC2[C@H](c2ccoc2)N1Cc1ccccc1 (some centres undefined)	inconclusive [inhibitor, partial curve, poor fit]	
COCCCNC(=O)Cc1c(C)c2c(cc(C)c3c(C(C)(C)C)coc32)oc1=O	inconclusive [inhibitor, full curve, poor fit]	
O=S(=O)(c1cccc(S(=O)(=O)N2CCC(Cc3ccccc3)CC2)c1)N1CCOCC1	inconclusive [inhibitor, partial curve, poor fit]	
CN(C)S(=O)(=O)c1cccc(NC(=O)c2cccc(S(=O)(=O)N3CCc4ccccc43)c2)c1	inconclusive [inhibitor, partial curve]	
CCOc1cc(C(=O)CCC(=O)OCC(=O)N2c3ccccc3NC(=O)C2(C)C)ccc1O	inconclusive [inhibitor, full curve, poor fit]	
Cc1ccc(NC(=O)c2nc(S(C)(=O)=O)ncc2N(Cc2cccc(F)c2)Cc2ccco2)cc1C	inconclusive [inhibitor, partial curve, poor fit]	
COc1cccc(C(=O)CSc2nccn2C)c1	inactive	
Cc1cc(Br)ccc1NC(=O)CSCc1c(C)noc1C	inconclusive [inhibitor, single point]	
Cc1cc(NCC2CCCCC2)nc2ccccc12	inconclusive [inhibitor, single point]	
COc1ccc(NC(=O)c2cccc(S(=O)(=O)N3CCOCC3)c2)cc1	inconclusive [inhibitor, single point]	
O=C(CCCNC(=O)c1ccc(Cl)cc1)NCc1ccccc1F	inconclusive [inhibitor, partial curve, poor fit]	
C[C@H](CO)N1C[C@H](C)[C@@H](CN(C)C(=O)Nc2ccccc2)Oc2ccc(NC(=O)Nc3ccc(C(F)(F)F)cc3)cc2C1=O	inconclusive [inhibitor, partial curve, poor fit]	
CCc1nc2ccc(C(=O)NCCOc3ccc(OC)cc3)cn2c1N(CC)Cc1ccc(OC)c(OC)c1	inconclusive [inhibitor, single point]	
Cc1ccc(S(=O)(=O)N2CCCCC2CCNC(=O)C(=O)NCc2ccccc2)cc1 (centres undefined)	inconclusive [inhibitor, full curve, poor fit]	
CC12CCC(=O)N1C(C(=O)Nc1ccc(SC(F)F)cc1)CS2 (centres undefined)	inconclusive [inhibitor, partial curve, poor fit]	
CC(=O)c1cccc(NC(=O)CSCc2ccc(Br)cc2)c1	inconclusive [inhibitor, partial curve, poor fit]	
Cc1ccnc(NC(=O)CNC(=O)Cc2cccc3ccccc23)c1	inconclusive [inhibitor, partial curve, poor fit]	

SMILES	Potency	activity change, negative = inhibition
CCc1ccc(NC(=O)CC2C(=O)N(c3cccc(C)c3)C(=O)N2Cc2cccc(OC)c2)cc1 (centres undefined)	inconclusive [inhibitor, single point]	
Cc1ccccc1OCCCC(=O)Nc1ccccc1C(F)(F)F	inconclusive [inhibitor, partial curve, poor fit]	
COc1cc(CNCc2ccccn2)ccc1OCc1ccc(Cl)c(Cl)c1	inconclusive [inhibitor, partial curve, poor fit]	
c1ccc(Oc2nc3ccccc3n3cccc23)cc1	inconclusive [inhibitor, single point]	
O=C(CN1C(=O)NC(Cc2ccccc2)C1=O)Nc1ccc(OC(F)(F)F)cc1 (centres undefined)	inconclusive [inhibitor, partial curve, poor fit]	
COc1ccc(OC)c(NC(=O)Cn2nc3c(cc2=O)CCCC3)c1	inactive	
CCN1CCCC1CNC(=O)c1ccc2c(c1)N(Cc1cccc(Cl)c1)C(=O)c1ccccc1S2(=O)=O (centres undefined)	inconclusive [inhibitor, partial curve, poor fit]	
COc1ccccc1NC(=O)c1sc2nc(-c3cc4cc(Cl)ccc4oc3=O)[nH]c(=O)c2c1C	inactive	
Cc1oc2ncnc(N3CCCCC3)c2c1C(=O)NCC1CCN(Cc2ccccc2F)CC1	inconclusive [inhibitor, single point]	
CCOC(=O)C(=O)N1CCC(Cc2ccccc2)CC1		inactive: -14.7% [at 7.66 µM]
Cc1ccc(CNC(=O)c2oc3ccc(S(=O)(=O)N4CCCC(C)C4)cc3c2C)cc1 (centres undefined)	inconclusive [inhibitor, partial curve, poor fit]	
CC(=O)NCC(=O)OCC(=O)c1ccc2ccccc2c1	inactive	
CC(Nc1nc(-c2ccccc2O)nc2ccccc12)c1ccccc1 (centres undefined)	inconclusive [inhibitor, single point]	
O=C(CSc1nnnn1-c1ccc(O)cc1)c1cc2ccccc2o1	inconclusive [inhibitor, single point]	
Cc1ccc(S(=O)(=O)N(C)c2ccc(C(=O)N3CCC(C(N)=O)CC3)cc2)cc1	inconclusive [inhibitor, partial curve, poor fit]	
Cc1cc(C)c(S(=O)(=O)N2CCN(C(=O)c3cc4ccccc4oc3=O)CC2)c(C)c1	inconclusive [inhibitor, partial curve, poor fit]	
Cc1ccc(C(=O)C2CCN(S(=O)(=O)c3ccc(C(=O)O)cc3)CC2)cc1	inactive	
COc1ccc(N2CCN(C(=O)C(C)(C)Oc3ccc(Cl)cc3)CC2)cc1	inconclusive [inhibitor, partial curve, poor fit]	
CC1CCCN(CC(=O)Nc2cc(Cl)ccc2Oc2ccccc2)C1 (centres undefined)	inconclusive [inhibitor, full curve, poor fit]	
CC1(c2ccc3ccccc3c2)NC(=O)N(CC(=O)N2CCN(Cc3ccccc3)CC2)C1=O (centres undefined)	inconclusive [inhibitor, partial curve, poor fit]	

SMILES	Potency	activity change, negative = inhibition
COc1ccc(-c2cc3c(=O)n(CC(=O)NCCCN4CCC(N5CCCCC5)CC4)nc(C)n3n2)cc1	inconclusive [inhibitor, full curve, poor fit]	
COc1ccc(-c2c(-c3cc(OC)cc(OC)c3)sc3ccc(OC)cc23)cc1	inconclusive [inhibitor, partial curve, poor fit]	
COc1ccccc1C1CCN(C(=S)Nc2ccc(Br)cc2)CC1	inconclusive [inhibitor, partial curve, poor fit]	
Cc1cc(C)c(C)c(S(=O)(=O)NCC(=O)Nc2ccccc2F)c1C	inconclusive [inhibitor, single point]	
COc1ccc(-c2cc(C)no2)cc1S(=O)(=O)NCC1CCN(Cc2cc(C)ccc2C)CC1	inconclusive [inhibitor, partial curve, poor fit]	
Cc1cccc(COCC(CC(C)C)N2CCN(C(=O)c3ccc(C(F)(F)F)cc3)CCC2=O)c1 (centres undefined)	inconclusive [inhibitor, single point]	
CC(C)(Cc1ccc(O)cc1)NC(=O)CC(=O)N/N=C/c1ccc(Cl)cc1	inconclusive [inhibitor, partial curve]	
O=C(COC(=O)c1ccc(S(=O)(=O)N2CCCCC2)cc1)NCc1ccc(F)cc1	inactive	
COc1ccc(-n2nnnc2C(c2cccs2)N2CCN(C/C=C/c3ccccc3)CC2)cc1 (centres undefined)	inconclusive [inhibitor, single point]	
c1ccc(-c2nnc(-c3ccccc3)o2)cc1	inactive	
Cc1cc(-c2ccc(S(=O)(=O)Nc3ccccc3C)cc2)on1	inconclusive [inhibitor, partial curve]	
CCOCCCNC(=O)CNC(=S)N(Cc1ccc(C)cc1)Cc1ccco1	inconclusive [inhibitor, partial curve, poor fit]	
Cc1ccccc1C1c2[nH]c3ccccc3c2CCN1CCCn1cccn1 (centres undefined)	inconclusive [inhibitor, partial curve, poor fit]	
Fc1ccc(C2N(c3ccccc3)C(=S)N3CCCN23)cc1 (centres undefined)	inconclusive [inhibitor, single point]	
COC(=O)c1sc(N)c(C(=O)OC)c1Cn1ncc(Cl)c(Cl)c1=O	inconclusive [inhibitor, single point]	
N#Cc1cccc(NS(=O)(=O)c2ccc(S(=O)(=O)N3CCOCC3)cc2)c1	inconclusive [inhibitor, partial curve, poor fit]	
CN(CCCC1CCCC1)C(=O)CCc1nnc(-c2ccccc2)o1	inconclusive [inhibitor, single point]	
COc1ccc(C(=O)CCC(=O)N2CCN(c3cccc(Cl)c3)CC2)cc1	inconclusive [inhibitor, single point]	
c1ccc(-n2cc(CN3CCC(N4CCOCC4)CC3)c(-c3ccc4c(c3)OCO4)n2)cc1	inconclusive [inhibitor, single point]	
